The results in this text go back to PubChem BioAssay AID1508624 (National Center for Advancing Translational Sciences (NCATS), 2021).

In all, about 48,000 compounds went through this assay and about 120 (0.25%) were called active. Roughly 4% stayed inconclusive and do not appear here. Calls come from the whole dose curve; as a rule, active = well fitted activation curve with a large enough effect; inconclusive = small, poorly fitted or top-dose-only effect, or another doubt; inactive = no such curve, though single readings can be large or run the other way. Some of the results follow.

This test in a line: Primary qHTS for Identification of Small Molecule Activators of Huntingtin-Antisense Promoter Activity. Note: nearly all actives have a fitted effect of over 55% in size. The note with it: HEK293 HTT-AS promoter firefly luciferase reporter (activity 0% = vehicle and -100% = no light), 24 h; series mostly up to 57.5 µM; activity change, positive = activation: at the top concentration. Summed up:
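HEK293 Fluc reporter, 2,500 cells/well, 24 h pre-culture; cpds up to 57.5 uM final, 24 h 37 degrees C; Dual-Glo, 10 min RT; normalized vehicle = 0%, zero RLU = -100%.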
(In general: In qHTS, concentration-response curves come from the screen itself.)
Consider `Oc1c(C(c2ccc(F)cc2)N2CCCC2)sc2nc(-c3ccco3)nn12` (centres undefined), for which the “activity change, positive = activation” value was inactive: -7.83%.

Turning to `Cc1ccc(CCNC(=O)C2COc3ccccc3C2)cc1` (centres undefined), the “activity change, positive = activation” value is inactive: 23.2%.

Turning to `O=C(Oc1ccccc1C(=O)O)c1ccccc1O`, the “activity change, positive = activation” value was inactive: -2.1%.

Consider `Cc1ccc(Cl)cc1-n1c(=O)c2sc3ccccc3c2n(CC(=O)NC2CCCC2)c1=O`, for which the “activity change, positive = activation” value is inactive: -22.3%.

Turning to `Cc1ccc2c(c1)-c1onc(C(=O)N3CCN(c4cc(C)ccc4C)CC3)c1CO2`, the “activity change, positive = activation” value was inactive: -7.82%.

`O=C(O)c1ccc(S(=O)(=O)N(Cl)Cl)cc1`: the “activity change, positive = activation” value is inactive: -0.253%.

Regarding `Cc1cc(C)n(-c2nc3cc(Cl)ccc3nc2N2CCN(c3cccc(C)c3C)CC2)n1`, the “activity change, positive = activation” value is inactive: -10.2%.

With `COc1ccccc1CNS(=O)(=O)c1c(C(=O)N2CCC(C)CC2)c(C)n(C)c1C`, the “activity change, positive = activation” value was inactive: -15.3%.

Take `Cc1ccc(CCNC(=O)Cn2ncc3c([nH]c4ccccc43)c2=O)cc1`: the “activity change, positive = activation” value is inactive: -10.1%.

On to `COc1ccc(CC(=O)Nc2c(C(=O)N3CCN(c4ccccc4F)CC3)oc3ccccc23)cc1OC`, for which the “activity change, positive = activation” value was inactive: -29.2%.

In the case of `COc1ccc(-c2nc3ccccc3o2)cc1NC(=O)c1ccc(-c2ccc(C)c(Cl)c2)o1`, the “activity change, positive = activation” value is inactive: -8.45%.

With `CCN(C(=O)c1cc2c(=O)oc3ccccc3c2s1)c1cccc(C(F)(F)F)c1`, the “activity change, positive = activation” value was inactive: -22.2%.

For the compound `Cc1ccc(Nc2c(-c3ccco3)nc3ccc(C)cn23)cc1`, the “activity change, positive = activation” value is inactive: -8.41%.

As to `CCOc1ccc(OCC)c(Nc2nc3ccccc3n3nnnc23)c1`, the “activity change, positive = activation” value was inactive: -8.67%.

On to `O=C(CN1C=NS(=O)(=O)c2ccccc21)Nc1ccc(Br)cc1`, for which the “activity change, positive = activation” value is inactive: -5.16%.

Consider `Cc1ccccc1CNC(=O)CCCn1ncn2c(cc3occc32)c1=O`, for which the “activity change, positive = activation” value is inactive: -8.21%.

Turning to `O=C1C2=C(Nc3ccccc3SC2c2ccc(C(F)(F)F)cc2)c2ccccc21` (centres undefined), the “activity change, positive = activation” value was inactive: -38.8%.

With `COc1ccc(NC(=O)CSC2=Nc3ccccc3C3=NC(Cc4ccccc4)C(=O)N23)cc1` (centres undefined), the “activity change, positive = activation” value is inactive: 3.54%.

For the compound `COCCNC(=O)c1ccc2c(c1)NC(=O)C(CS(=O)(=O)Cc1ccc(F)cc1Cl)N2` (centres undefined), the “activity change, positive = activation” value was inactive: -6.91%.

In the case of `COc1ccc(NC(=O)c2c(NC(=O)c3cccc(C)c3)sc3c2CCC3)cc1`, the “activity change, positive = activation” value is inactive: -2.2%.

On to `COc1cccc(CNC(=O)c2ccc3oc(=O)n(Cc4ccccc4)c3c2)c1`, for which the “activity change, positive = activation” value was inactive: -22.7%.

For `NS(=O)(=O)c1cc(Cl)c(Cl)c(S(N)(=O)=O)c1`, the “activity change, positive = activation” value is inactive: -8.56%.

In the case of `Cc1ccc(NC(=O)CSc2nnc(C)s2)c(C)c1`, the “activity change, positive = activation” value was inactive: -11.4%.

With `COc1ccc(NC(=O)C2CCN(c3nc4ccccc4[nH]3)CC2)cc1OC`, the “activity change, positive = activation” value was inactive: -11.4%.

Turning to `CCCCN1C(=O)C(NC(=O)c2ccc(C(C)(C)C)cc2)(C(F)(F)F)C(C(=O)OC)=C1C` (centres undefined), the “activity change, positive = activation” value was inactive: -21.1%.

As for `Cc1cc(O)c(C(c2ccc(F)cc2)N2CCN(c3ccccc3)CC2)c(=O)n1Cc1ccco1` (centres undefined), the “activity change, positive = activation” value is inactive: 8.37%.

Regarding `CS(=O)(=O)c1ccc(-c2cnc(N)c(C(=O)Nc3ccccc3)n2)cc1`, the “activity change, positive = activation” value is inactive: -17.6%.

In the case of `CC(NC(=O)c1cccc(Nc2nc3ccccc3n3nnnc23)c1)c1ccccc1` (centres undefined), the “activity change, positive = activation” value is inactive: -11.2%.

Regarding `O=C(CSc1nc2c(c(=O)[nH]1)CCC2)Nc1cccc(O)c1`, the “activity change, positive = activation” value is inactive: 1.27%.

`CCn1c(=O)c2sccc2n2c(CCCC(=O)Nc3ccc(C)cc3)nnc12`: the “activity change, positive = activation” value was inactive: 1.44%.

As for `COc1cc(NC(=O)c2c(C)nn(-c3ccc(F)cc3)c2-n2cccc2)cc(OC)c1`, the “activity change, positive = activation” value was inactive: -1.37%.

As to `COc1ccc(-n2nnnc2C2CCN(S(=O)(=O)c3cc(Cl)ccc3OC)CC2)cc1`, the “activity change, positive = activation” value was inactive: -36.8%.

Take `Cc1ccc(N2CCN(c3ncnc4onc(-c5ccc(F)cc5)c34)CC2)c(C)c1`: the “activity change, positive = activation” value was inactive: -12.5%.

On to `Cc1ccc(S(=O)(=O)NCCc2nnc3ccc(SCc4cccc(F)c4)nn23)cc1`, for which the “activity change, positive = activation” value is inactive: -17.1%.

Turning to `COc1cc(-c2cc3n(C)c(C)c(CCC(=O)Nc4ccc(F)cc4)c(=O)n3n2)cc(OC)c1OC`, the “activity change, positive = activation” value is inactive: -7.63%.

As to `CCN1CCCC(OC(=O)C(c2ccccc2)c2ccccc2)C1` (centres undefined), the “activity change, positive = activation” value is inactive: -14.5%.

With `COc1ccc(Cn2c(=O)c3oc4ccccc4c3n(Cc3ccccc3)c2=O)cc1`, the “activity change, positive = activation” value was inactive: 0.184%.

Consider `CCOC(=O)c1[nH]c(C)c(CCC(=O)NCc2cccc(Cl)c2)c1C`, for which the “activity change, positive = activation” value was inactive: -11.1%.

Regarding `O=C(CSc1c2c(nc3ccccc13)CCC2)Nc1ccc(F)cc1F`, the “activity change, positive = activation” value was inactive: -5.11%.

Take `Nc1ccc(C(=O)O)cc1`: the “activity change, positive = activation” value was inactive: 2.61%.

Take `Cc1ccnc(NS(=O)(=O)c2ccc(NC(=O)Nc3ccc(S(=O)(=O)Nc4nccc(C)n4)cc3)cc2)n1`: the “activity change, positive = activation” value is inactive: 19.1%.

As for `COC(=O)c1ccc([C@@H]2Nc3c(cccc3C(F)(F)F)[C@@H]3C=CC[C@@H]32)cc1`, the “activity change, positive = activation” value was inactive: -7.85%.

As for `Cc1ccccc1CN1C(=O)c2ccccc2Sc2ccc(C(=O)N3CCOCC3)cc21`, the “activity change, positive = activation” value was inactive: -14.8%.

Take `COc1ccccc1-c1c(C(F)(F)F)oc2c(CN3CCCCC3C)c(O)ccc2c1=O` (centres undefined): the “activity change, positive = activation” value was inactive: -8.62%.

On to `CCN1C(=O)c2ccccc2S(=O)c2ccc(C(=O)N3CCN(c4ccc(F)cc4)CC3)cc21` (centres undefined), for which the “activity change, positive = activation” value is inactive: -29.6%.

On to `Cc1cccc(-c2nc(-c3ccc4c(c3)[nH]c(=O)n4C)no2)c1`, for which the “activity change, positive = activation” value is inactive: 13.6%.

As to `O=C(Nc1ccc2oc(-c3cccc4c(Br)cccc34)nc2c1)c1ccc(Br)cc1`, the “activity change, positive = activation” value is inactive: -4.82%.

Regarding `Cc1cc(F)ccc1NC(=O)CCS(=O)(=O)c1cccc2nsnc12`, the “activity change, positive = activation” value is inactive: -8.3%.

As for `CCCN(CCC)CCCNC(=O)c1cc2c(-c3ccc(Cl)cc3)nn(C)c2s1`, the “activity change, positive = activation” value is inactive: -12.6%.
